# Test results reported in the supplement of paper PMC12217912.
# The list shows a part of the results. The full chains were built here from the parent and the listed change. Values near 0.05 are background.
# B1: TEV protease; numbered along this chain (parent)
# chain: MGESLFKGPRDYNPISSSICHLTNESDGHTTSLYGIGFGPFIITNKHLFRRNNGTLVVQSLHGVFKVKDTTTLQQHLVDGRDMIIIRMPKDFPPFPQKLKFREPQREERICLVTTNFQTKSMSSMVSDTSCTFPSGDGIFWKHWIQTKDGQCGSPLVSTRDGFIVGIHSASNFTNTNNYFTSVPKNFMELLTNQEAQQWVSGWRLNADSVLWGGHKVFMVKPEEPFQPVKEATQL
# Variants of: B1
# Assay: raw area under fraction-flipped curve 0-4 h after induction (AUC4h, not background-subtracted), DNA-recorder readout of cleavage of the substrate (dimensionless); higher = more cleavage of the substrate by the protease variant
# Conditions: temperature: 34 °C; time window: 0-4 h after rhamnose induction
# Method: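 In vivo DNA recorder in E. coli TOP10(DE3) ΔrhaA at 34 °C. Each TEVp single-site mutant (parent TEVp 0) is paired with a single-site variant of the 7-mer TEVs (canonical ENLYFQ|S). The substrate sits between flexible linkers in a Bxb1-sfGFP-TEVs-SsrA fusion, so cleavage stabilises Bxb1 and speeds flipping of a recombination array, read by NGS. The value is the raw area under the fraction-flipped curve over 0-4 h after rhamnose induction (AUC4h), with ≥20 reads per time point. It is not background-subtracted; inactive controls average about 0.047.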
# 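Further: Bxb1 expression induced with 0.2% (w/v) L-rhamnose at OD600 near 0.5, cultures sampled hourly, flipped fraction per protease–substrate barcode pair counted by paired-end Illumina sequencing.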
variant,measurement,value
MGESLFKGPRDYNPISSSICHLTNESDGHTTSLYGIGFGPFIITNKHLFRRNNGTLVVQSLHGVFKVKDTTTLQQHLVDGRDMIIIRMPKDFPPFPQKLKFREPQREERICLVTTNFQTKSMSSMVSDTSCTFPSGDGIFWKHWIQTKDGQCGSPLVSTRDGFIVGIHLASNFTNTNNYFTSVPKNFMELLTNQEAQQWVSGWRLNADSVLWGGHKVFMVKPEEPFQPVKEATQL [S169L],area with substrate ENLAFQS,0.0644
same,area with substrate ENLEFQS,0.0566
same,area with substrate ENLGFQS,0.0613
MGESLFKGPRDYNPISSSICHLTNESDGHTTSLYGIGFGPFIITNKHLFRRNNGTLVVQSLHGVFKVKDTTTLQQHLVDGRDMIIIRMPKDFPPFPQKLKFREPQREERICLVTTNFQTKSMSSMVSDTSCTFPSGDGIFWKHWIQTKDGQCGSPLVSTRDGFIVGIHVASNFTNTNNYFTSVPKNFMELLTNQEAQQWVSGWRLNADSVLWGGHKVFMVKPEEPFQPVKEATQL [S169V],area with substrate ENLAFQS,0.0491
same,area with substrate ENLDFQS,0.0566
same,area with substrate ENLEFQS,0.0484
same,area with substrate ENLFFQS,0.0786
same,area with substrate ENLGFQS,0.0511
same,area with substrate ENLHFQS,0.0587
same,area with substrate ENLIFQS,0.0866
same,area with substrate ENLKFQS,0.0812
same,area with substrate ENLPFQS,0.0561
same,area with substrate ENLQFQS,0.0546
MGESLFKGPRDYNPISSSICHLTNESDGHTTSLYGIGFGPFIITNKHLFRRNNGTLVVQSLHGVFKVKDTTTLQQHLVDGRDMIIIRMPKDFPPFPQKLKFREPQREERICLVTTNFQTKSMSSMVSDTSCTFPSGDGIFWKHWIQTKDGQCGSPLVSTRDGFIVGIHSANNFTNTNNYFTSVPKNFMELLTNQEAQQWVSGWRLNADSVLWGGHKVFMVKPEEPFQPVKEATQL [S171N],area with substrate ENLAFQS,0.0669
same,area with substrate ENLCFQS,0.0597
same,area with substrate ENLDFQS,0.055
same,area with substrate ENLEFQS,0.064
same,area with substrate ENLFFQS,0.0576
same,area with substrate ENLHFQS,0.0629
same,area with substrate ENLIFQS,0.0592
same,area with substrate ENLKFQS,0.0748
same,area with substrate ENLNFQS,0.0692
same,area with substrate ENLQFQS,0.0559
same,area with substrate ENLSFQS,0.0694
same,area with substrate ENLVFQS,0.0646
MGESLFKGPRDYNPISSSICHLTNESDGHTTSLYGIGFGPFIITNKHLFRRNNGTLVVQSLHGVFKVKDTTTLQQHLVDGRDMIIIRMPKDFPPFPQKLKFREPQREERICLVTTNFQTKSMSSMVSDTSCTFPSGDGIFWKHWIQTKDGQCGSPLVSTRDGFIVGIHSASNFMNTNNYFTSVPKNFMELLTNQEAQQWVSGWRLNADSVLWGGHKVFMVKPEEPFQPVKEATQL [T174M],area with substrate ENLAFQS,0.0669
same,area with substrate ENLCFQS,0.0591
same,area with substrate ENLDFQS,0.0607
same,area with substrate ENLFFQS,0.12
same,area with substrate ENLIFQS,0.0834
same,area with substrate ENLLFQS,0.0704
same,area with substrate ENLNFQS,0.0367
same,area with substrate ENLRFQS,0.0493
same,area with substrate ENLSFQS,0.0562
MGESLFKGPRDYNPISSSICHLTNESDGHTTSLYGIGFGPFIITNKHLFRRNNGTLVVQSLHGVFKVKDTTTLQQHLVDGRDMIIIRMPKDFPPFPQKLKFREPQREERICLVTTNFQTKSMSSMVSDTSCTFPSGDGIFWKHWIQTKDGQCGSPLVSTRDGFIVGIHSASNFTNTFNYFTSVPKNFMELLTNQEAQQWVSGWRLNADSVLWGGHKVFMVKPEEPFQPVKEATQL [N177F],area with substrate ENLAFQS,0.0846
same,area with substrate ENLCFQS,0.0577
same,area with substrate ENLDFQS,0.056
same,area with substrate ENLFFQS,0.0656
same,area with substrate ENLGFQS,0.0703
same,area with substrate ENLHFQS,0.0546
same,area with substrate ENLIFQS,0.0635
same,area with substrate ENLKFQS,0.0626
same,area with substrate ENLMFQS,0.0568
same,area with substrate ENLNFQS,0.0634
same,area with substrate ENLQFQS,0.0484
same,area with substrate ENLRFQS,0.066
same,area with substrate ENLSFQS,0.0572
same,area with substrate ENLTFQS,0.0551
same,area with substrate ENLVFQS,0.0494
same,area with substrate ENLWFQS,0.065
MGESLFKGPRDYNPISSSICHLTNESDGHTTSLYGIGFGPFIITNKHLFRRNNGTLVVQSLHGVFKVKDTTTLQQHLVDGRDMIIIRMPKDFPPFPQKLKFREPQREERICLVTTNFQTKSMSSMVSDTSCTFPSGDGIFWKHWIQTKDGQCGSPLVSTRDGFIVGIHSASNFTNTNLYFTSVPKNFMELLTNQEAQQWVSGWRLNADSVLWGGHKVFMVKPEEPFQPVKEATQL [N178L],area with substrate ENLAFQS,0.072
same,area with substrate ENLDFQS,0.0549
same,area with substrate ENLEFQS,0.072
same,area with substrate ENLFFQS,0.106
same,area with substrate ENLKFQS,0.0982
same,area with substrate ENLLFQS,0.0819
same,area with substrate ENLMFQS,0.0602
same,area with substrate ENLNFQS,0.0783
same,area with substrate ENLQFQS,0.0754
same,area with substrate ENLRFQS,0.0591
same,area with substrate ENLSFQS,0.0537
same,area with substrate ENLWFQS,0.0678
MGESLFKGPRDYNPISSSICHLTNESDGHTTSLYGIGFGPFIITNKHLFRRNNGTLVVQSLHGVFKVKDTTTLQQHLVDGRDMIIIRMPKDFPPFPQKLKFREPQREERICLVTTNFQTKSMSSMVSDTSCTFPSGDGIFWKHWIQTKDGQCGSPLVSTRDGFIVGIHSASNFTNTNNGFTSVPKNFMELLTNQEAQQWVSGWRLNADSVLWGGHKVFMVKPEEPFQPVKEATQL [Y179G],area with substrate ENLAFQS,0.054
same,area with substrate ENLFFQS,0.0571
same,area with substrate ENLHFQS,0.0588
same,area with substrate ENLNFQS,0.0637
same,area with substrate ENLPFQS,0.0377
same,area with substrate ENLRFQS,0.0673
MGESLFKGPRDYNPISSSICHLTNESDGHTTSLYGIGFGPFIITNKHLFRRNNGTLVVQSLHGVFKVKDTTTLQQHLVDGRDMIIIRMPKDFPPFPQKLKFREPQREERICLVTTNFQTKSMSSMVSDTSCTFPSGDGIFWKHWIQTKDGQCGSPLVSTRDGFIVGIHSASNFTNTNNPFTSVPKNFMELLTNQEAQQWVSGWRLNADSVLWGGHKVFMVKPEEPFQPVKEATQL [Y179P],area with substrate ENLAFQS,0.0269
same,area with substrate ENLCFQS,0.0376
same,area with substrate ENLDFQS,0.0493
same,area with substrate ENLEFQS,0.0506
same,area with substrate ENLFFQS,0.0559
same,area with substrate ENLHFQS,0.0557
same,area with substrate ENLKFQS,0.0547
same,area with substrate ENLLFQS,0.0622
same,area with substrate ENLNFQS,0.0513
same,area with substrate ENLPFQS,0.0505
same,area with substrate ENLRFQS,0.0615
same,area with substrate ENLSFQS,0.059
MGESLFKGPRDYNPISSSICHLTNESDGHTTSLYGIGFGPFIITNKHLFRRNNGTLVVQSLHGVFKVKDTTTLQQHLVDGRDMIIIRMPKDFPPFPQKLKFREPQREERICLVTTNFQTKSMSSMVSDTSCTFPSGDGIFWKHWIQTKDGQCGSPLVSTRDGFIVGIHSASNFTNTNNYTTSVPKNFMELLTNQEAQQWVSGWRLNADSVLWGGHKVFMVKPEEPFQPVKEATQL [F180T],area with substrate ENLAFQS,0.0593
same,area with substrate ENLDFQS,0.0567
same,area with substrate ENLFFQS,0.0607
same,area with substrate ENLHFQS,0.0682
same,area with substrate ENLKFQS,0.0605
same,area with substrate ENLLFQS,0.0467
same,area with substrate ENLNFQS,0.0728
MGESLFKGPRDYNPISSSICHLTNESDGHTTSLYGIGFGPFIITNKHLFRRNNGTLVVQSLHGVFKVKDTTTLQQHLVDGRDMIIIRMPKDFPPFPQKLKFREPQREERICLVTTNFQTKSMSSMVSDTSCTFPSGDGIFWKHWIQTKDGQCGSPLVSTRDGFIVGIHSASNFTNTNNYFDSVPKNFMELLTNQEAQQWVSGWRLNADSVLWGGHKVFMVKPEEPFQPVKEATQL [T181D],area with substrate ENLAFQS,0.0588
same,area with substrate ENLCFQS,0.0549
same,area with substrate ENLDFQS,0.0563
same,area with substrate ENLIFQS,0.0616
same,area with substrate ENLKFQS,0.0547
same,area with substrate ENLMFQS,0.0572
same,area with substrate ENLSFQS,0.051
MGESLFKGPRDYNPISSSICHLTNESDGHTTSLYGIGFGPFIITNKHLFRRNNGTLVVQSLHGVFKVKDTTTLQQHLVDGRDMIIIRMPKDFPPFPQKLKFREPQREERICLVTTNFQTKSMSSMVSDTSCTFPSGDGIFWKHWIQTKDGQCGSPLVSTRDGFIVGIHSASNFTNTNNYFQSVPKNFMELLTNQEAQQWVSGWRLNADSVLWGGHKVFMVKPEEPFQPVKEATQL [T181Q],area with substrate ENLAFQS,0.0804
same,area with substrate ENLCFQS,0.0451
same,area with substrate ENLDFQS,0.0668
same,area with substrate ENLEFQS,0.0631
same,area with substrate ENLFFQS,0.0546
same,area with substrate ENLHFQS,0.0429
same,area with substrate ENLRFQS,0.0504
same,area with substrate ENLWFQS,0.0672
